Laboratory results from PubChem BioAssay AID1347165 (National Center for Advancing Translational Sciences (NCATS), 2019).
Among all 220,000 compounds or so, about 5,700 (2.6%) were called active. Inconclusive means that the source gave no clear call. Such entries were picked first, then a sample of the others. Calls come from the whole dose curve; as a rule, active = well fitted inhibition curve with a large enough effect; inconclusive = small, poorly fitted or top-dose-only effect; inactive = no such curve, though single readings can be large or run the other way. Potencies beside an inconclusive call are fits to weak or partial responses and may not hold up.

target: Lysine-specific demethylase 5B (Homo sapiens) (UniProt Q9UGL1); assay: Primary screen for KDM5B Histone Demethylases FDH-coupled qHTS; conditions: FDH-coupled NADH fluorescence (FDH is formaldehyde dehydrogenase); activity change, negative = inhibition: at 57.7 µM (top of the series) unless noted; note: nearly all actives have a fitted effect of over 70% in size; for activity change, negative = inhibition: 0% is about no effect
Chain of UniProt Q9UGL1 (Q9UGL1 whole entry, looked up): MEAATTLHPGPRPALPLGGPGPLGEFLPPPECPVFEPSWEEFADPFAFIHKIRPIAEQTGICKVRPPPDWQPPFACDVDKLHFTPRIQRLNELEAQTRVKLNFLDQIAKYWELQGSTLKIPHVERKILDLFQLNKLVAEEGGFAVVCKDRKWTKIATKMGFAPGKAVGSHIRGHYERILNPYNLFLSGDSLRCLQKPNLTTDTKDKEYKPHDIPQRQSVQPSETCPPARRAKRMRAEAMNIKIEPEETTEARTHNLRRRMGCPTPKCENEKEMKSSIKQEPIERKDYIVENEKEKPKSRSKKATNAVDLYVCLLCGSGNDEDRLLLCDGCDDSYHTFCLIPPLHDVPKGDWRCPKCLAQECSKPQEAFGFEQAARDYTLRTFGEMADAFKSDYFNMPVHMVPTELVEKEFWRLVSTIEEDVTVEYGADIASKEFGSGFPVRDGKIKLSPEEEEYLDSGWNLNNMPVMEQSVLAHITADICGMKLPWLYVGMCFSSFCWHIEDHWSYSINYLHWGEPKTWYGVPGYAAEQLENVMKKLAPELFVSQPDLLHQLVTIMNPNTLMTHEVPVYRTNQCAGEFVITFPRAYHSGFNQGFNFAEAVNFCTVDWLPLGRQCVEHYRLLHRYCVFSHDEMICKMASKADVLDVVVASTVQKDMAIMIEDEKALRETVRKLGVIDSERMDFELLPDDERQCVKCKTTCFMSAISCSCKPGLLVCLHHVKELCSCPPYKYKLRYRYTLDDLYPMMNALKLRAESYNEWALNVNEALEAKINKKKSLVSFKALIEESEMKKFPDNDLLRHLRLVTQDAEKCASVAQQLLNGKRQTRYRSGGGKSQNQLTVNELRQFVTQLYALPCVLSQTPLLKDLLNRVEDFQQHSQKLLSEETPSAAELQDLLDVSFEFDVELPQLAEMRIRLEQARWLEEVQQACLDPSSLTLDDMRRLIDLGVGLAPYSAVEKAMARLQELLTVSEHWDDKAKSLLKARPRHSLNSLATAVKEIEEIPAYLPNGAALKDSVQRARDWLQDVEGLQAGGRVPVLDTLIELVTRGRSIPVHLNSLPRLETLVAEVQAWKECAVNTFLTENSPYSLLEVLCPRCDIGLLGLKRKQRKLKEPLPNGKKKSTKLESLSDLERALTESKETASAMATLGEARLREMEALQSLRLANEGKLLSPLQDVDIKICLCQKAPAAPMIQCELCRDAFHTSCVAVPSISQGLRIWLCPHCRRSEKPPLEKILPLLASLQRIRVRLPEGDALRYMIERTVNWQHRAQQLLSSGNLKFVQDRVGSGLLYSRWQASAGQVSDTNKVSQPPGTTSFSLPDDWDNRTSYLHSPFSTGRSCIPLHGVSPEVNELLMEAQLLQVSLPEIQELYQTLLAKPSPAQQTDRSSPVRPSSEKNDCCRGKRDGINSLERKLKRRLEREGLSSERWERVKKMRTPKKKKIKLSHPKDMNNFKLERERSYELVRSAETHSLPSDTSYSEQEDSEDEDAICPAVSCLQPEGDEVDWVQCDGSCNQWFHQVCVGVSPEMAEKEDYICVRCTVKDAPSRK
Method in brief: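 Compound dilutions met 200 nM (final) KDM5BΔAP for 10 min at room temperature before substrate addition. The substrate mix held 12.5 µM H3K4me3 with cofactors 25 µM α-ketoglutarate and 50 µM Fe²⁺. NADH signal gain over 30 min defined activity.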
Potency is the fitted concentration of half-maximal effect; tags give direction and shape of the fitted curve.

| Structure (SMILES) | Potency | activity change, negative = inhibition |
| --- | --- | --- |
| Cc1ccc(-n2cc(-c3ccccc3)nc2S(=O)(=O)CC(=O)Nc2ccc(F)cc2)cc1 | inconclusive: 44.7 µM [inhibitor, single point] | – |
| O=C1NC[C@@H](CCC(=O)N2CCCC2)N2C[C@@H](NCc3cccc(Cl)c3)C[C@@H]12 | inconclusive: 25.1 µM [inhibitor, partial curve, poor fit] | – |
| CC(C)c1ccc(NC(=O)Cn2c(=O)oc3cccnc32)cc1 | inconclusive: 31.6 µM [inhibitor, single point] | – |
| Cn1cnnc1-c1nn(C)c2c1CN(C(=O)c1n[nH]c3ccccc13)CC2 | – | inactive: -3.34% |
| CCCCOc1ccc(-c2nc(C3CC(=O)N(C4CCCCC4)C3)no2)cc1 (stereo not drawn) | inconclusive: 20 µM [inhibitor, partial curve, poor fit] | – |
| O=C(CSc1nc2cc([N+](=O)[O-])ccc2o1)Nc1ccc(F)c(F)c1 | inconclusive: 22.4 µM [inhibitor, partial curve, poor fit] | – |
| CN1CCN(c2nc3c(c(=O)n(C)c(=O)n3C)n2CC(=O)C23CC4CC(CC(C4)C2)C3)CC1 | – | inactive: 9.91% |
| COc1ccc(OC)c(C(=O)COC(=O)CCC(=O)c2ccc(Cl)cc2)c1 | inconclusive: 39.8 µM [inhibitor, single point] | – |
| Cc1c(Cc2ccccc2)c(=O)oc2cc(O)ccc12 | inconclusive: 28.2 µM [inhibitor, partial curve, poor fit] | – |
| COc1cccc(O)c1CN1CCC2(CC1)Cc1ccccc1CNC2=O | – | inactive: 1.26% [at 115 µM] |
| Cc1ccc(C)c(N2CCN(Cc3nnc(-c4ccc5c(c4)OCO5)o3)CC2)c1 | inconclusive: 35.5 µM [inhibitor, single point] | – |
| Cc1c(OCC(=O)Nc2ccccc2)c(=O)ccn1CCO | – | inactive: -1.16% |
| Cc1ccc(NC(=O)CSc2ncn[nH]2)cc1C | inconclusive: 44.7 µM [inhibitor, single point] | – |
| CCOc1ccccc1NC(=O)CCc1c(C)nn(-c2ccc(N3CCOCC3)nn2)c1C | inconclusive: 17.8 µM [inhibitor, partial curve, poor fit] | – |
| CC1CCc2c(sc(/N=C/c3cccnc3)c2C(N)=O)C1 (stereo not drawn) | inconclusive: 22.4 µM [inhibitor, single point] | – |
| O=C(Nc1ccc(F)cc1)N1Cc2[nH]cnc2C[C@H]1c1nc(-c2ccc(F)cc2)no1 | inconclusive: 31.6 µM [inhibitor, partial curve] | – |
| Cc1ccc(C)c(S(=O)(=O)Nc2cccc(S(=O)(=O)C3CCCC3)c2)c1 | – | inactive: 9.81% |
| COC(=O)c1ccc(-n2c(CCC(=O)O)ccc2-c2ccc(C)cc2)cc1 | inconclusive: 22.4 µM [inhibitor, partial curve, poor fit] | – |
